In PubChem BioAssay AID686978 (National Center for Advancing Translational Sciences (NCATS), 2013):
“And” between values parts separate entries of the source, which are not always exact repeats. Identical values can stand only once. The campaign covered roughly 420,000 compounds. About 64,000 (15%) were called active. The shares of active, inactive and inconclusive entries below differ from those in the screen. The call rests on the fitted dose curve; in most records, active means well fitted inhibition curve with a large enough effect; inconclusive means small, poorly fitted or top-dose-only effect; inactive means flat fitted curve, though single readings scatter. Potencies of inconclusive entries are left out as doubtful fits.
On the % scale 0 is the no-effect control and ±100 the full control effect; potency means the concentration at half of the fitted maximal effect; tags describe the fitted curve by direction and shape.

Test: qHTS for Inhibitors of human tyrosyl-DNA phosphodiesterase 1 (TDP1): qHTS in cells in absence of CPT; further: nearly all actives have a fitted effect of over 55% in size
Settings: DT40 Tdp1-/- hTDP1 cells, no CPT, ATP luminescence, 48 h; activity change, negative = growth inhibition: at 46.2 µM (top of the series) unless noted
Summary of the method: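 Compound effects on proliferation are scored in DT40 Tdp1-/-;hTDP1 cells in the absence of CPT. ATP levels (CellTiter-Glo luminescence) are recorded after a ≥48 hr, 37 °C incubation.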
In the case of `CCn1c(NCc2cc(Br)ccc2NS(=O)(=O)c2ccc(C)cc2)nc2ccccc21`, the Potency is reported as inconclusive [inhibitor, single point]. With `CC(=O)Nc1c(Cl)c(Cl)c2c(c1Cl)Cc1cc(Cl)ccc1-2` the Potency was inconclusive [inhibitor, single point]. For `C=CCN(CC=C)S(=O)(=O)c1ccc(C(=O)Nc2nnc(CSC)o2)cc1`, the Potency was inconclusive [inhibitor, single point]. With `O=C(NCCCN1CCOCC1)c1c(-c2ccccc2)sc2ccccc12` the Potency was inconclusive [inhibitor, single point]. In the case of `Cc1cc(C(=O)Nc2c(F)c(F)c(F)c(F)c2F)n(-c2ccccc2)n1`, the Potency is reported as “inactive”. For `CCN(CC)CCCn1c2c(c(SCC(=O)N3CCc4ccccc43)nc1=O)CCC2`, the Potency was “inactive”. With `Cc1ccc2[nH]c(=O)c3cc(C(=O)N(CCCOC(C)C)Cc4ccco4)sc3c2c1` the Potency was active: 14.6 µM and active: 11.6 µM. For `COc1cc(Cn2c3ccc(NC(=O)CC(C)(C)C)cc3c(=O)n2C)ccc1F`, the Potency was inconclusive [inhibitor, partial curve]. In the case of `CCS(=O)(=O)N1Cc2ccccc2CC1C(=O)NCCc1c[nH]c2ccccc12` (configuration not stated), the Potency is reported as “inactive”. For `COc1ccc(-n2nnnc2SCC(=O)Nc2nc3c(s2)CCCC3)cc1`, the Potency was inconclusive [inhibitor, single point]. With `C(=N/N1CCN(c2ccccc2)CC1)/c1ccncc1` the Potency was inconclusive [inhibitor, single point]. For `O=C(NCc1ccncc1)C(=O)NCC1OCCN1S(=O)(=O)c1ccc(Br)cc1` (configuration not stated), the Potency was “inactive”. With `CCOC(=O)N1CCN(C(=O)CSCC(=O)N=c2sc3cc(OC)ccc3n2C)CC1` the Potency was inconclusive [inhibitor, single point]. For `O=C(/C=C/c1cccc(C(F)(F)F)c1)NNC(=O)c1ccncc1`, the Potency was “inactive”. In the case of `O=C(Cc1cccc2ccccc12)Nc1nc(-c2cccc([N+](=O)[O-])c2)cs1`, the Potency is reported as inconclusive [inhibitor, single point]. In the case of `COc1ccc(C2=NCCc3cc(OC)c(OC)cc32)cc1`, the Potency is reported as active: 20.6 µM. With `O=C(CN1C(=O)NC2(CCCC2)C1=O)N1CCN(Cc2ccccc2)CC1` the Potency was “inactive”. In the case of `Oc1ccc(/C=N/NC(=S)Nc2cccnc2)c(O)c1O`, the Potency is reported as active: 14.6 µM. With `O=C(CCn1c(=S)oc2ccccc21)N1CCN(c2ccc(F)cc2)CC1` the Potency was inconclusive [inhibitor, single point]. In the case of `CCOC(=O)N1CCC(Nc2cc(C)nc3c(-c4ccccc4OC)c(C)nn23)CC1`, the Potency is reported as active: 9.2 µM. In the case of `O=C1CN(C(=O)COc2ccccc2)C(c2ccc(F)cc2)c2cc(Br)ccc2N1` (configuration not stated), the Potency is reported as inconclusive [inhibitor, single point]. With `O=C(NCc1nnc2n1CCN(Cc1ccnc3ccccc13)CC2)c1cccc(F)c1` the Potency was inconclusive [inhibitor, single point]. In the case of `COc1ccccc1N1CCN(S(=O)(=O)c2cn(C)nc2C)CC1`, the Potency is reported as “inactive”. With `O=C(Nc1cc2c3c(c1)CC(=O)N3CCC2)c1ccccc1Br` the Potency was “inactive”. For `COc1ccc(OCC(=O)Nc2ccc(Cl)c(-c3nc4ncccc4o3)c2)cc1`, the Potency was “inactive”. With `CCOC(=O)c1cc2c(N)c(C(=O)c3cc(C#N)c(SC)nc3C)sc2nc1C` the Potency was active: 10.3 µM. For `Cc1cc(Br)cc2c(C(=O)NCC3CCCO3)cc(-c3cccs3)nc12` (configuration not stated), the Potency was inconclusive [inhibitor, single point]. In the case of `Cc1ccc(NC(=O)CCCn2c(=O)c3cccn3c3ccccc32)cc1Cl`, the Potency is reported as inconclusive [inhibitor, partial curve]. In the case of `Oc1ccc2ccccc2c1C=NCc1cn2ccsc2n1`, the Potency is reported as “inactive”. In the case of `COC(=O)c1sccc1NC(=O)c1ccc(OC)c([N+](=O)[O-])c1`, the activity change, negative = growth inhibition is reported as inconclusive: -33.8% [inhibitor]. For `Cc1ccc(C(=O)Cc2cc3ccccc3oc2=O)c(C)c1`, the Potency was inconclusive [inhibitor, full curve, poor fit]. In the case of `COc1ccc(-c2nn(-c3ccc(F)cc3)c3c2cnc2ccc(F)cc23)cc1OC`, the Potency is reported as “inactive”. For `Cc1noc(/C=C/N(C)C)c1S(=O)(=O)N(C)Cc1ccc(F)cc1`, the Potency was inconclusive [inhibitor, single point]. For `Cc1oc(-c2ccccc2F)nc1CSCC(=O)NCc1ccc2c(c1)OCO2`, the Potency was inconclusive [inhibitor, partial curve]. With `CCN(CC)S(=O)(=O)c1ccc(OC)c(NC(=O)c2cn(CC)c3nc(C)ccc3c2=O)c1` the Potency was “inactive”. For `O=C(CC1(O)C(=O)Nc2ccc(Br)cc21)c1ccccc1` (configuration not stated), the Potency was active: 25.9 µM. With `O=C(Cc1ccccc1Cl)c1ccccc1` the Potency was “inactive”. With `COc1ccccc1CNc1ncncc1-c1ccccc1OC` the Potency was inconclusive [inhibitor, single point]. In the case of `COC(=O)c1ccc(C(NC(=O)c2cccnc2)NC(=O)c2cccnc2)cc1`, the Potency is reported as “inactive”. For `O=C(CSc1nnc(SCc2ccccc2)s1)N/N=C/c1ccc(C(=O)O)cc1`, the Potency was inconclusive [inhibitor, single point]. For `O=C(N/N=C/c1ccc(N2CCOCC2)c([N+](=O)[O-])c1)c1ccc(F)cc1`, the Potency was inconclusive [inhibitor, single point]. In the case of `O=C(NCc1nc2ccccc2n1Cc1ccccc1Cl)c1ccccc1`, the Potency is reported as inconclusive [inhibitor, single point]. In the case of `C#CCOCCOCCOCCNc1nc(N2CCN(C(=O)CCCCCCCCCCNC(=O)[C@H](CO)n3cc(CCCSC)nn3)CC2)nc(N2CCN(C(=O)CCCCCCCCCCNC(=O)[C@H](CO)n3cc(CCCSC)nn3)CC2)n1`, the Potency is reported as active: 6.51 µM. For `Cc1cc(C(=O)NCCc2ccc(S(N)(=O)=O)cc2)c(C)o1`, the Potency was “inactive”. For `CCOC(=O)c1sc(NC(=O)CCN2CCCCCC2)c(C(=O)OCC)c1C`, the Potency was inconclusive [inhibitor, single point]. With `COc1ccc(-n2nc(C(=O)NCC(=O)NC3CCCC(C)C3C)c3ccccc3c2=O)cc1` (configuration not stated) the Potency was inconclusive [inhibitor, single point]. For `CCOC(=O)c1ccc(NC(=O)CN(Cc2ccc(Cl)cc2)S(C)(=O)=O)cc1`, the Potency was inconclusive [inhibitor, partial curve]. With `COCC(C)n1c(SCc2nc(N)nc(Nc3ccccc3C)n2)nc2ccccc2c1=O` (configuration not stated) the Potency was inconclusive [inhibitor, partial curve]. With `O=S(=O)(Nc1nccs1)c1cnc(Cl)c(Br)c1` the Potency was inconclusive [inhibitor, partial curve, poor fit]. In the case of `O=C(C1=C(O)C(=O)N(Cc2cccnc2)C1c1cccc(Oc2ccccc2)c1)c1ccco1` (configuration not stated), the Potency is reported as inconclusive [inhibitor, single point]. With `CCCOC(=O)C1=C(C)NC2=C(C(=O)CCC2)C1c1ccc(N(C)C)cc1` (configuration not stated) the Potency was inconclusive [inhibitor, single point]. In the case of `COc1ccc(C(=O)N2C(=S)NC(=O)/C2=C\c2ccc(C)cc2)cc1`, the Potency is reported as inconclusive [inhibitor, full curve, poor fit]. For `CC(C)Oc1ccc(/C=C(/NC(=O)c2ccccc2)C(=O)NCCC(=O)O)cc1`, the Potency was “inactive”. For `Cc1ccc(C(=O)O/N=C(\N)Cc2ccc([N+](=O)[O-])cc2)c(Cl)c1`, the Potency was active: 23.1 µM. For `CCN(CC)CC(=O)Nc1sc(C)c(C)c1C(=O)c1ccc(C)cc1`, the Potency was inconclusive [inhibitor, single point]. For `Cc1noc(C)c1NC(=O)N(C)C[C@H]1Oc2ccc(NC(=O)Nc3ccc(C(F)(F)F)cc3)cc2C(=O)N([C@H](C)CO)C[C@@H]1C`, the Potency was “inactive”. In the case of `CC1(C)CC(=O)C2=C(C1)NC(Nc1nc3ccccc3o1)=NC2c1cccc(O)c1` (configuration not stated), the Potency is reported as inconclusive [inhibitor, single point]. With `CCOC(=O)[C@H]1[C@H]2COc3ccc(C)cc3[C@@H]2N2C(=O)c3cc(Br)ccc3NC(=O)[C@@]12C` the Potency was inconclusive [inhibitor, single point]. For `CN(C)c1ccc(/C=C/c2ccnc3cc(Cl)cc(Cl)c23)cc1`, the Potency was inconclusive [inhibitor, single point]. In the case of `COC(=O)c1ccc2c(=O)n(CCO)c(=S)[nH]c2c1`, the Potency is reported as “inactive”. With `CCOc1ccc(CCNC(=O)Cn2ccc3cc(S(=O)(=O)N4CCCCC4)ccc32)cc1` the Potency was inconclusive [inhibitor, single point]. With `Cc1ccsc1/C=N/NC(=O)c1nnn(-c2nonc2N)c1CN(C)c1ccccc1` the Potency was inconclusive [inhibitor, single point]. With `CCN(CC)C(=O)CSc1nc(Cc2ccccc2)nc2ccccc12` the Potency was inconclusive [inhibitor, partial curve]. In the case of `COc1cccc(CNC(=O)c2ccc3c(c2)N(Cc2ccc(F)cc2Cl)C(=O)c2ccccc2S3)c1`, the Potency is reported as inconclusive [inhibitor, single point]. For `COc1ccccc1NC(=O)c1ccc(C(=O)c2ccccc2)o1`, the Potency was inconclusive [inhibitor, partial curve, poor fit]. For `CCc1nc2c(OCCOc3ccc(F)cc3)cccn2c1N(C)C(=O)c1ccc(OC)cc1`, the Potency was inconclusive [inhibitor, single point]. For `O=C(Nc1ccccc1F)c1nc(SCc2ccccc2F)ncc1Cl`, the Potency was inconclusive [inhibitor, single point].
